Measured values published in paper PMC4077589.
These are yes or no findings as the source states them, for the method shown. In cells and extracts the contact can be indirect. Where a sequence is shown, tags or fusion partners need not be part of it.

T1: full-length TMEM115–FLAG–HIS (in vitro translated) (human) (UniProt Q12893)
T1 sequence: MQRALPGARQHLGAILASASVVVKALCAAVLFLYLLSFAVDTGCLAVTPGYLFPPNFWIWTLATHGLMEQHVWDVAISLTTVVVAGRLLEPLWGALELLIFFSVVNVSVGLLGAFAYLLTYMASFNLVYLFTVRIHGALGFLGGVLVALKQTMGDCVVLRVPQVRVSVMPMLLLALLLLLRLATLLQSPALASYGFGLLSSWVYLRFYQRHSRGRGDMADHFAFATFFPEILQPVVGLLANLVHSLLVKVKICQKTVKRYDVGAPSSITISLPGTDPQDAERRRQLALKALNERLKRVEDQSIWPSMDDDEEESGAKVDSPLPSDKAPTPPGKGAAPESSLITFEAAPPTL


Biological target: T1, full-length TMEM115–FLAG–HIS (in vitro translated) (human)
Test: co-IP; in vitro translated products combined in cell lysis buffer, FLAG immunoprecipitation, beads washed with cell lysis buffer containing 500 mM NaCl

Row | Binder | binding
1 | Myc-tagged COG3 (in vitro translated) (protein, UniProt Q96JB2 1-828) MAEAALLLLPEAAAERDAREKLALWDRRPDTTAPLTDRQTDSVLELKAAAENLPVPAELPIEDLCSLTSQSLPIELTSVVPESTEDILLKGFTSLGMEEERIETAQQFFSWFAKLQTQMDQDEGTKYRQMRDYLSGFQEQCDAILNDVNSALQHLESLQKQYLFVSNKTGTLHEACEQLLKEQSELVDLAENIQQKLSYFNELETINTKLNSPTLSVNSDGFIPMLAKLDDCITYISSHPNFKDYPIYLLKFKQCLSKALHLMKTYTVNTLQTLTSQLLKRDPSSVPNADNAFTLFYVKFRAAAPKVRTLIEQIELRSEKIPEYQQLLNDIHQCYLDQRELLLGPSIACTVAELTSQNNRDHCALVRSGCAFMVHVCQDEHQLYNEFFTKPTSKLDELLEKLCVSLYDVFRPLIIHVIHLETLSELCGILKNEVLEDHVQNNAEQLGAFAAGVKQMLEDVQERLVYRTHIYIQTDITGYKPAPGDLAYPDKLVMMEQIAQSLKDEQKKVPSEASFSDVHLEEGESNSLTKSGSTESLNPRPQTTISPADLHGMWYPTVRRTLVCLSKLYRCIDRAVFQGLSQEALSACIQSLLGASESISKNKTQIDGQLFLIKHLLILREQIAPFHTEFTIKEISLDLKKTRDAAFKILNPMTVPRFFRLNSNNALIEFLLEGTPEIREHYLDSKKDVDRHLKSACEQFIQQQTKLFVEQLEEFMTKVSALKTMASQGGPKYTLSQQPWAQPAKVNDLAATAYKTIKTKLPVTLRSMSLYLSNKDTEFILFKPVRNNIQQVFQKFHALLKEEFSPEDIQIIACPSMEQLSLLLLVSK | no binding (condition: beads washed with 500 mM NaCl)
2 | Myc-tagged COG6 (in vitro translated) (protein, UniProt Q9Y2V7 1-657) MAEGSGEVVAVSATGAANGLNNGAGGTSATTCNPLSRKLHKILETRLDNDKEMLEALKALSTFFVENSLRTRRNLRGDIERKSLAINEEFVSIFKEVKEELESISEDVQAMSNCCQDMTSRLQAAKEQTQDLIVKTTKLQSESQKLEIRAQVADAFLSKFQLTSDEMSLLRGTREGPITEDFFKALGRVKQIHNDVKVLLRTNQQTAGLEIMEQMALLQETAYERLYRWAQSECRTLTQESCDVSPVLTQAMEALQDRPVLYKYTLDEFGTARRSTVVRGFIDALTRGGPGGTPRPIEMHSHDPLRYVGDMLAWLHQATASEKEHLEALLKHVTTQGVEENIQEVVGHITEGVCRPLKVRIEQVIVAEPGAVLLYKISNLLKFYHHTISGIVGNSATALLTTIEEMHLLSKKIFFNSLSLHASKLMDKVELPPPDLGPSSALNQTLMLLREVLASHDSSVVPLDARQADFVQVLSCVLDPLLQMCTVSASNLGTADMATFMVNSLYMMKTTLALFEFTDRRLEMLQFQIEAHLDTLINEQASYVLTRVGLSYIYNTVQQHKPEQGSLANMPNLDSVTLKAAMVQFDRYLSAPDNLLIPQLNFLLSATVKEQIVKQSTELVCRAYGEVYAAVMNPINEYKDPENILHRSPQQVQTLLS | no binding (condition: beads washed with 500 mM NaCl)
